# Data reported in the supplement of paper PMC3724861.
# This is one part of the list.
# Tested on: T1, Caupolican (Caup) homeodomain DNA-binding domain
# T1 sequence: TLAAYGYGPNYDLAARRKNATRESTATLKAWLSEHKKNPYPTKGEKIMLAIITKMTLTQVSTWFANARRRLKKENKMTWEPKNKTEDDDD
# Assay: PBM E-score (8-mer, recovered from the published 9-mer minima) (E-score (dimensionless, -0.5 to 0.5)); Drosophila protein; higher = stronger relative binding preference, active = 0.31 or more
# Procedure, shortened: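 An enrichment score, with higher meaning stronger, expresses relative binding preference for each short DNA word. The protein used was Caup's homeodomain DNA-binding domain (residues 214-303), produced by in vitro transcription and translation and tested at 100 nM on custom-designed protein binding microarrays. The 8-mer values were recovered from published 9-mer scores, each equal to the lower of its two constituent 8-mer scores.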
row,Sequence,PBM E-score
1,CGCTCATC,inactive: -0.0826
2,GCACGCTA,inactive: -0.128
3,CTTGGTCA,inactive: -0.0643
4,AGCAGCTC,inactive: -0.171
5,ATGGGTCC,inactive: -0.0747
6,AGGGCTAC,inactive: -0.0721
7,ATATCCCC,inactive: -0.00098
8,GGGTCACC,inactive: -0.305
9,AGCGGGAG,inactive: -0.266
10,CAGATCGC,inactive: -0.0937
11,GCCGGCTA,inactive: -0.225
12,CGGTCACG,inactive: -0.176
13,ACGGTCCC,inactive: -0.197
14,AGCAAACC,inactive: 0.0858
15,GCACTGCA,inactive: -0.14
16,GACGCTAA,inactive: -0.127
17,ATGGGATC,inactive: 0.032
18,CCCCACCA,inactive: -0.245
19,AGAGTCGA,inactive: -0.0788
20,CTGACGAA,inactive: 0.0306
21,CGTCCTCC,inactive: -0.156
22,AGCTAAAC,inactive: 0.0265
23,CGTTATGA,inactive: -0.0221
24,AAAACTGT,inactive: 0.128

row,Sequence,PBM E-score
1,AAACTTAC,inactive: 0.201
2,ATCTAGTC,inactive: 0.05
3,CTCGATCA,inactive: -0.0459
4,ACGCGAAA,inactive: -0.0228
5,GACTCACA,inactive: 0.082
6,CTGAACAG,inactive: 0.058
7,AGTCACTC,inactive: -0.0168
8,CGCGCTGC,inactive: -0.153
9,CCCGCTGC,inactive: -0.202
10,GCGCTGCA,inactive: -0.156
11,GTCCCGCA,inactive: -0.157
12,CTGGAACA,inactive: 0.199
13,CAGATAAG,inactive: 0.0966
14,GGTATTCA,inactive: 0.075
15,AGCACTCC,inactive: -0.0245
16,CACCTGTC,inactive: 0.132
17,ACAGGGCA,inactive: 0.069
18,GTCTTATA,inactive: 0.151
19,AAGGCCCC,inactive: -0.268
20,GTCGGGGA,inactive: -0.0318
21,GACTCTGA,inactive: 0.0102
22,TGGATGAA,inactive: 0.0632
23,ACTTACGC,inactive: 0.0663
24,CGCCCCCG,inactive: -0.299

row,Sequence,PBM E-score
1,GCGCACGC,inactive: -0.251
2,ATTCGAAC,inactive: 0.16
3,GCAGGCGC,inactive: -0.288
4,CAATGGTA,inactive: 0.112
5,CTGGCTAA,inactive: -0.0751
6,AGGGAGCC,inactive: -0.254
7,ACAATCAC,inactive: 0.133
8,CGGGGACG,inactive: -0.139
9,AGTGTAAC,inactive: 0.2
10,CACGCACA,inactive: 0.0915
11,GCCACACA,inactive: -0.0551
12,GAAGAATA,inactive: 0.0843
13,ACTGTGTC,inactive: 0.229
14,AATTAGGG,inactive: 0.0221
15,ACGAACAA,inactive: 0.298
16,AGATAGCT,inactive: 0.0303
17,CCGAGGAG,inactive: -0.115
18,CGGAGTAG,inactive: -0.0319
19,GACAATTA,inactive: 0.168
20,ACGAGGCG,inactive: -0.0824
21,AAGAATAC,inactive: 0.148
22,ATACTCGG,inactive: 0.00654
23,AGTTGAAC,inactive: 0.00101
24,TGCTCACA,inactive: 0.0534

row,Sequence,PBM E-score
1,AGTGTTTC,inactive: 0.0785
2,ATAACGTA,≥ 0.208
3,ATGCTGTG,inactive: 0.136
4,GCGCTCCC,inactive: -0.312
5,CGCCGGGA,inactive: -0.268
6,CATGTATA,active: 0.418
7,TCCTGGCA,≥ -0.0742
8,ATGTTTGA,active: 0.327
9,CACGAACA,inactive: 0.27
10,CCCCTGGA,inactive: -0.283
11,CAATAAAG,inactive: 0.0464
12,GCTTAGAC,inactive: -0.109
13,CCAAGGCC,inactive: -0.285
14,ATGAGTGG,inactive: -0.0457
15,GCGAATCA,inactive: 0.039
16,TAAGAGCA,inactive: -0.0396
17,CACTTGAG,inactive: -0.104
18,GTAAAGGA,inactive: 0.0746
19,ACCCCCTA,inactive: -0.201
20,AGGGACAA,inactive: 0.0424
21,ACGATCGC,inactive: -0.0712
22,AGCGAACA,inactive: 0.136
23,CTACTGGA,inactive: -0.0316
24,TCCGTGAA,inactive: 0.0438

row,Sequence,PBM E-score
1,ATGTCAGA,active: 0.336
2,AGATATCC,inactive: 0.0875
3,AAATGATT,inactive: 0.171
4,GCAGAACA,inactive: 0.174
5,GTACGAAC,inactive: 0.108
6,TCCTTGCA,inactive: -0.039
7,AGCCCCCA,inactive: -0.365
8,GTTTCGAA,inactive: 0.0513
9,AGGTCTCG,inactive: -0.0846
10,GGGCCTTA,inactive: -0.199
11,GCCGGGCC,inactive: -0.243
12,ACGAATAA,inactive: 0.146
13,GCGAGGCC,inactive: -0.21
14,ACCAACCG,inactive: -0.0503
15,GACCAGAA,inactive: 0.00802
16,TTTTAAAA,inactive: 0.00747
17,AGTGTACA,active: 0.337
18,AGGGGAGA,inactive: -0.152
19,CGTAGCAA,inactive: 0.066
20,CGGTAGGC,inactive: -0.149
21,GTGGCTTA,inactive: -0.0913
22,CTTCCAAC,inactive: -0.0418
23,GAGGCTTA,inactive: -0.129
24,CGCAGTCC,inactive: -0.137

row,Sequence,PBM E-score
1,CCTCGAGA,inactive: -0.0348
2,ACCTCACT,≥ 0.021
3,ACACGTAG,inactive: 0.271
4,AAGCTGCT,inactive: 0.00226
5,TAGACGGA,inactive: -0.0225
6,GCGGGACC,inactive: -0.187
7,GAGCTTTA,inactive: -0.143
8,GCACGCAC,inactive: -0.14
9,TCACGCGA,inactive: -0.0203
10,AACGGGAG,inactive: -0.0126
11,TCTCGGCA,inactive: -0.144
12,CCCCTTAA,inactive: -0.141
13,ACACATAA,inactive: 0.291
14,CACCATGC,inactive: -0.0233
15,AGCACAAA,inactive: 0.0386
16,GAGTTTTA,inactive: 0.00246
17,CAGATGGG,inactive: -0.0895
18,ACCATCGT,inactive: -0.0669
19,CAAGACGG,inactive: -0.03
20,GTCCCGGA,inactive: -0.0787
21,CCTGGTAA,inactive: 0.0149
22,CCCGACGA,inactive: -0.0169
